These are yes or no findings as the source states them, for the method shown. Binding seen in cells or lysates may run through a third protein. Some results given as binding are weak or reduced against the parent protein; the word gives no strength.

By UniProt entry, the sequences of proteins in these tests, tags left out. Where a name states a change or a piece, a line headed by the entry shows the natural chain unless it says otherwise.
UniProt Q92466: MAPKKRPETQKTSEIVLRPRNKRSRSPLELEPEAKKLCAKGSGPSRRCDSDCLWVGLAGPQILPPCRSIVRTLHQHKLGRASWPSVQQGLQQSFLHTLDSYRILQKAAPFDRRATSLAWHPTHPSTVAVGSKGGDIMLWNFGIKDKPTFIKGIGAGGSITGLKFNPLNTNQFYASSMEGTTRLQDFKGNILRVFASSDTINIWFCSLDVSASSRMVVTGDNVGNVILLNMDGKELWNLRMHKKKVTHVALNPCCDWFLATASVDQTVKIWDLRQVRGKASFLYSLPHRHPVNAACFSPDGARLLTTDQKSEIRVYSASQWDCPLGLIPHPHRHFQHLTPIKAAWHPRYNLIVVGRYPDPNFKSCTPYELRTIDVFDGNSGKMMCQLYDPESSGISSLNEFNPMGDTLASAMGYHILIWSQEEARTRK
UniProt O00482: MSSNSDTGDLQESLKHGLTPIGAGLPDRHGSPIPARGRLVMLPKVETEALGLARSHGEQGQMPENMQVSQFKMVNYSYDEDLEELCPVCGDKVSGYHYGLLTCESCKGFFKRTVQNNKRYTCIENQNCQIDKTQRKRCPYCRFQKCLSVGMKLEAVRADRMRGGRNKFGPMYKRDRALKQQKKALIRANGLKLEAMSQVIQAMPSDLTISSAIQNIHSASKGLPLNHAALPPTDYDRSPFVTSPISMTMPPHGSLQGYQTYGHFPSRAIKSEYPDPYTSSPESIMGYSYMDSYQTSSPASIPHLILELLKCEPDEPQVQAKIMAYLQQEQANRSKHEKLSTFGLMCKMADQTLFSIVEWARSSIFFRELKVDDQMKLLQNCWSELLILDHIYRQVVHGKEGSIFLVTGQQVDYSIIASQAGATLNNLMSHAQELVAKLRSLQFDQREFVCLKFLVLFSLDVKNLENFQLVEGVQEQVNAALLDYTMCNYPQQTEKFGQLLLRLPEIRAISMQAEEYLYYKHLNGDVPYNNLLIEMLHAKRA
UniProt Q16531: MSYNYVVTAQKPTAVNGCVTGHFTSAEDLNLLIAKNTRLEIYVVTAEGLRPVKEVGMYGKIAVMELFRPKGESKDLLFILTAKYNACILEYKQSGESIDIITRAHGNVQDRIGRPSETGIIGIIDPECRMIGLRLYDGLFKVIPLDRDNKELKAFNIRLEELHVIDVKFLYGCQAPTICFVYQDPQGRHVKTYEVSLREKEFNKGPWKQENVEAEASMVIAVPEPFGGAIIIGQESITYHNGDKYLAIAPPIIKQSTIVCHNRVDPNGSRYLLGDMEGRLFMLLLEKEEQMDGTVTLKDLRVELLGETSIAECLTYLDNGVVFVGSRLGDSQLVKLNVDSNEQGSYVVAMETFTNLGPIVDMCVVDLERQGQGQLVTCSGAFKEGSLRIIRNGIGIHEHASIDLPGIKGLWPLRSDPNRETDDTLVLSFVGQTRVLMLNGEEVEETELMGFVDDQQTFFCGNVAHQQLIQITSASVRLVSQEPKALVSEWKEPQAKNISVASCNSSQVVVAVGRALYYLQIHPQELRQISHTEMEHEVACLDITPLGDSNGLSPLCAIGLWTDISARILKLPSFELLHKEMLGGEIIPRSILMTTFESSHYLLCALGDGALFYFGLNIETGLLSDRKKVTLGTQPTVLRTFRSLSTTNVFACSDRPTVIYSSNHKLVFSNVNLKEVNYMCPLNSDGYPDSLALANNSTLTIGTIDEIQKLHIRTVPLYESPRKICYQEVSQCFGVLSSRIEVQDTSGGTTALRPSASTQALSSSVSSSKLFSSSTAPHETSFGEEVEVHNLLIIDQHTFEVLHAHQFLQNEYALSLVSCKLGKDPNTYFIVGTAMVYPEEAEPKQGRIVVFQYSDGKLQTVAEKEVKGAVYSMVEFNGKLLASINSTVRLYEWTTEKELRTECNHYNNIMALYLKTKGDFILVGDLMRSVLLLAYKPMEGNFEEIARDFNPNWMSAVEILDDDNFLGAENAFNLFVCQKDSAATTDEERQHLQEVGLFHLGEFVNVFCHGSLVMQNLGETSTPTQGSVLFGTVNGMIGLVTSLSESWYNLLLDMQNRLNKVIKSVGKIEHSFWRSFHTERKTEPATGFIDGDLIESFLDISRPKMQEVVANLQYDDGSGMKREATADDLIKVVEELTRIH
UniProt P45448: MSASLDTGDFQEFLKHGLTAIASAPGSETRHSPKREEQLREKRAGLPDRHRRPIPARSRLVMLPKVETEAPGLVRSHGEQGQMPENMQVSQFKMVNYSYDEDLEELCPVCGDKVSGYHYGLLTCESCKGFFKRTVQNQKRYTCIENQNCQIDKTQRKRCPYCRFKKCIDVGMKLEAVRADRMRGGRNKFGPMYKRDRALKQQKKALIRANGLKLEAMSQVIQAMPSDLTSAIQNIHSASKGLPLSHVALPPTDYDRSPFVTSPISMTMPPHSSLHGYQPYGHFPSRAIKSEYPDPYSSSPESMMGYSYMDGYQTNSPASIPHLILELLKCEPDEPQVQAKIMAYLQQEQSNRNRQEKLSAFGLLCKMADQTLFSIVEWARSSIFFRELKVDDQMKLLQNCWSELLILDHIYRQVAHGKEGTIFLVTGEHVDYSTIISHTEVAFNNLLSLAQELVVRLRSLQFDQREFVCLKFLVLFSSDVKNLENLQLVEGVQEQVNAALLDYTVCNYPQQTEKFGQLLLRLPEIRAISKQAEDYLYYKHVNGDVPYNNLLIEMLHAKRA
UniProt Q13620: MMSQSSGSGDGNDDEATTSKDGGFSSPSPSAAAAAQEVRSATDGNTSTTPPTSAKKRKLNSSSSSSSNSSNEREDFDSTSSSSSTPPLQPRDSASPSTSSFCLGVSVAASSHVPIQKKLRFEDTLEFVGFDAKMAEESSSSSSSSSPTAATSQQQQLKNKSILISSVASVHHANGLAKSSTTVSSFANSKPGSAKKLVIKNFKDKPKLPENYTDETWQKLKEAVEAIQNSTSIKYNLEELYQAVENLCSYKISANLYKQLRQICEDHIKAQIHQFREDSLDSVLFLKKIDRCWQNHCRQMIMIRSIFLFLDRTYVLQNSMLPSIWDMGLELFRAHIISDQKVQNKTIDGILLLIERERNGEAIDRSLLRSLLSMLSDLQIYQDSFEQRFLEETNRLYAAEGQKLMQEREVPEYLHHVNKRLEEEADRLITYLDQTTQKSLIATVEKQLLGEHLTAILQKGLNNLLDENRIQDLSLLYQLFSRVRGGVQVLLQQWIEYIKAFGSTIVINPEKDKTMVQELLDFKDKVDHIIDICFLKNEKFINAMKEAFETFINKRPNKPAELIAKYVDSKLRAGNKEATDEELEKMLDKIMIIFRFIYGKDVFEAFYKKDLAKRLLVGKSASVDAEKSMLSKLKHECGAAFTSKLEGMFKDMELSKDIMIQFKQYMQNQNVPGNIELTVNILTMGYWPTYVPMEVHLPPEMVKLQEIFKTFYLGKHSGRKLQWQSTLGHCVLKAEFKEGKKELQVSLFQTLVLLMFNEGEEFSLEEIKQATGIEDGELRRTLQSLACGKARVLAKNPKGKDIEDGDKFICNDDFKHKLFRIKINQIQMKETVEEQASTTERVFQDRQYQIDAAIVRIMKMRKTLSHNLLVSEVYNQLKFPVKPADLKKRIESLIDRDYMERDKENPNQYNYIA
UniProt Q13619: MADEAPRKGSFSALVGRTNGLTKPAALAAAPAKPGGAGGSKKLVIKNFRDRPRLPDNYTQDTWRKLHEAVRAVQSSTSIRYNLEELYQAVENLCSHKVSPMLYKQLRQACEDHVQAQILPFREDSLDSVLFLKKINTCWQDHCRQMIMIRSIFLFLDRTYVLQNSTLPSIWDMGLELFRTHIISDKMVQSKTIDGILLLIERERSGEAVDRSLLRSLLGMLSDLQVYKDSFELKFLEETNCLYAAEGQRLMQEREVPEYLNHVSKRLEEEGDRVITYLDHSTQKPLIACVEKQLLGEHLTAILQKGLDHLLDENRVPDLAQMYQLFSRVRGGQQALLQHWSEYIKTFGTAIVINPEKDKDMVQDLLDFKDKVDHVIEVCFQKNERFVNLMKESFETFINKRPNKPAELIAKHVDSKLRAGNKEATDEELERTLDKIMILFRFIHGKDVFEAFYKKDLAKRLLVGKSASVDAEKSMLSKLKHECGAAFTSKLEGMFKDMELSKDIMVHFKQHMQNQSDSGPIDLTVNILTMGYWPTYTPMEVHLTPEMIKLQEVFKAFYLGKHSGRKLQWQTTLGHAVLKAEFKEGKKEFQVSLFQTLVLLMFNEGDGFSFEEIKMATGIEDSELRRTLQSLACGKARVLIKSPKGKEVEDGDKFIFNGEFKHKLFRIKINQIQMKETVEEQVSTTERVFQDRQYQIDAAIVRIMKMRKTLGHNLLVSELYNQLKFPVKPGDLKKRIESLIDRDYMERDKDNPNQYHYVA

For the first assay, the target named is Myc-DDB2 (DNA damage-binding protein 2) (UniProt Q92466). The assay is described as follows: co-IP; HEK293T cells transfected with EGFP-hLRH-1 and/or Myc-DDB2, MG-132 (10 uM) for 6 h; lysates immunoprecipitated with anti-Myc antibody, immunoblot. Background: Immunoblotting shows a protein as a band on a membrane.
In the case of “EGFP-hLRH-1 (human liver receptor homologue-1) (from UniProt O00482 1-541)”, the binding entry is on record as “binds”.
The same measure, in the same setting: with “endogenous DDB1 (DNA damage binding-protein 1) of HEK293T cells (from UniProt Q16531 1-1140)” the entry was “binds”.

In another assay the target is GST-DDB2 (UniProt Q92466). Put plainly: pull-down; bead-bound GST or GST-DDB2 (glutathione-sepharose, from E. coli) incubated overnight at 4 °C with lysates of transfected HEK293T cells; washed with PBS/Triton X-100; immunoblot with anti-LRH-1-N or anti-GFP; only the target purified.
Take “EGFP-LRH-1(117-168) (from UniProt P45448 117-168) (domain or fragment)”: the binding entry is given as “binds”.
For “EGFP-mLRH-1 (mouse liver receptor homologue-1) (from UniProt P45448 1-560)”, the binding entry is “binds”.
Still for that read-out and setting: with “EGFP-LRH-1(1-169) (from UniProt P45448 1-169) (domain or fragment)” the entry was “binds”; with “EGFP-LRH-1(193-560) (from UniProt P45448 193-560) (domain or fragment)”, “no binding”; with “EGFP-hLRH-1 (human liver receptor homologue-1) (from UniProt O00482 1-541)”, “binds”.
On the same count and under the same terms, with “EGFP-LRH-1(1-191) (from UniProt P45448 1-191) (domain or fragment)” the entry was “binds”; with “EGFP-LRH-1(1-116) (from UniProt P45448 1-116) (domain or fragment)”, “no binding”.
The same measure, in the same setting: in the case of “EGFP-LRH-1(226-520) (from UniProt P45448 226-520) (domain or fragment)” it was “no binding”.

The next assay deals with endogenous DDB2 of HepG2 cells (human (endogenous in HepG2)) (UniProt Q92466). The assay is described as follows: co-IP; HepG2 cell lysates immunoprecipitated with anti-DDB2 antibody or control IgG, immunoblot; endogenous proteins.
As for “endogenous DDB1 of HepG2 cells (from UniProt Q16531 1-1140)”, the binding entry is on record as “binds”.
Same read-out and setting: in the case of “endogenous CUL4B of HepG2 cells (from UniProt Q13620 1-913)” it was “binds”; in that of “endogenous LRH-1 of HepG2 cells (from UniProt O00482 1-541)”, “binds”.
On to “endogenous CUL4A of HepG2 cells (from UniProt Q13619 1-759) (other; other documents disagree on this pair)”, for which the binding result was “binds”.

Source of the values: paper PMC6438966.
